# The whole screen tested about 50,000 compounds, of which about 800 (1.6%) showed an effect of 50% or more. Some of the results follow.
# Molecular target: Bcl-2-like protein 10 (Homo sapiens) (UniProt Q9HD36)
# Experiment: TR3 peptide-Bcl-B binding displacers, biochemical primary FP assay, phenotype converters (AID 1240);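 also: 0% = Bcl-B with tracer peptide and DMSO and 100% = tracer peptide lacking Bcl-B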
# Conditions: GST-Bcl-B / FITC-TR3 peptide fluorescence polarization; stronger effect = higher value; compound at 3.75 mg/L
# UniProt Q9HD36, sequence (Q9HD36 whole entry, looked up): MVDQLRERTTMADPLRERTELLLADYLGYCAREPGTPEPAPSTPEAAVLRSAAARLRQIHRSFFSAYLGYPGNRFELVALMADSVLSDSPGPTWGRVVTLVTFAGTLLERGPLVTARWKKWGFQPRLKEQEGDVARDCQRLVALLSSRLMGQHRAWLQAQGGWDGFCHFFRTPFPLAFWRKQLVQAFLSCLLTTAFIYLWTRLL
row,SMILES,displacement
1,CCOC(=O)C(C(=O)OCC)C1OC(=O)c2cc3c(cc21)C(=O)OC3C(C(=O)OCC)C(=O)OCC (configuration not stated),15.1%
2,O=C(O)CCCN1C(=O)/C(=C/c2cccc(F)c2)SC1=S,31.1%
3,CC(NC(=O)CSCc1cccc(Br)c1)c1ccccc1 (configuration not stated),7.8%
4,Cc1cccc(NC2=NC3(CCCCC3)N=C(N)N2)c1C,-11.9%
5,O=C(Nc1cc(Cl)cc(Cl)c1)c1ccc(CN2CCc3ccccc3C2)cc1,-3.7%
6,Cc1c(Cl)c(C(F)(F)F)nn1CC(=O)Nc1ccccc1C(F)(F)F,12.3%
7,CCSCCOC(=O)C1=C(C)NC2=C(C(=O)CCC2)C1c1cccc([N+](=O)[O-])c1 (configuration not stated),5.6%
8,O=C1C(=Cc2ccc(-c3ccccc3[N+](=O)[O-])o2)C(=O)c2ccccc21,-3.3%
9,COc1ccc(S(=O)(=O)N2CCN(C(=O)COc3ccccc3)CC2)cc1,11.2%
10,O=C1c2ccccc2C(=O)N1CC=C(Cl)Cl,14.3%
11,O=C(O)/C=C/C(=O)Nc1ccccc1C(=O)Nc1ccccc1,-11.6%
12,CCN(CC)CCOc1c(C)cc(Cl)cc1C,5.2%
13,Cc1ccc(N2C(=O)CC(N3CCN(Cc4ccccc4)CC3)C2=O)cc1 (configuration not stated),6.5%
14,COc1ccc(CC(=O)N2N=C(C)CC2(O)c2ccc(Cl)cc2)cc1OC (configuration not stated),-9.6%
15,O=C(CSc1nnc(-c2ccco2)n1-c1ccccc1)Nc1ccccc1[N+](=O)[O-],-2.3%
16,O=C(Nc1ccc(F)cc1)c1ccccc1C(F)(F)F,12.4%
17,O=C1C=CC(=O)N1c1ccccc1N1C(=O)C=CC1=O,-0.9%
18,O=C(NCCNC(=O)c1cccs1)c1cccs1,-2.4%
19,COC(=O)c1c(O)ccc(-c2ccc(OC)cc2)c1C(=O)OC,-3.6%
20,CCCC(C(=O)O)N1C(=O)/C(=C/c2cccc(O)c2)SC1=S (configuration not stated),9.6%
21,O=C(Nc1ccccc1C(=O)Nc1ccc(Br)cc1)c1ccco1,0.8%
22,COc1ccc(-c2noc(-c3ccco3)n2)cc1OC,-14.2%
23,CN(/N=C\c1ccco1)c1nc(-c2ccccc2)cc(-c2ccccc2)n1,5.3%

row,SMILES,displacement
1,CC(=O)c1c(C)oc2ccc(O)c(N)c12,18.7%
2,CCOC(=O)c1ccc(NC(=O)COc2ccc3ccccc3c2)cc1,-5.3%
3,CN(CCO)C1=NS(=O)(=O)c2ccccc21,-0.6%
4,CCOc1ccccc1NC(=O)c1c(N)sc2c1CCC(C)C2 (configuration not stated),-4.8%
5,COc1ccc(Cl)cc1N(CC(=O)NCC(C)C)S(=O)(=O)c1ccc(C)c([N+](=O)[O-])c1,16.7%
6,O=C(NCc1ccco1)C(=O)Nc1ccc(Oc2ccccc2)cc1,0.1%
7,COc1cccc(Nc2c([N+](=O)[O-])c(=O)n(C)c3ccccc23)c1,-6.2%
8,COc1ccc(C2/C(=C(\O)c3ccccc3)C(=O)C(=O)N2CCCC(=O)O)c(OC)c1 (configuration not stated),-14%
9,Cc1ccc2nsnc2c1NC(=O)c1ccc2c(c1)OCCO2,18.5%
10,O=c1c2ccccc2c2ccccc2c(=O)n1CC1CCCO1 (configuration not stated),-8.2%
11,O=C(O)/C=C/C(=O)Nc1ccc(F)cc1F,-10.4%
12,Cc1cc(C)nc(SCC(=O)Nc2nnc(-c3ccccc3)s2)n1,-12.6%
13,Cc1nn(Cc2ccccc2)c(N)c1-c1ccccc1,5%
14,O=C(NC(Cc1ccccc1)C(=O)O)/C(=C\c1ccc2c(c1)OCO2)NC(=O)c1ccco1 (configuration not stated),4.1%
15,Cc1n(Cc2ccccc2)c2ccccc2[n+]1C,8.7%
16,C/C(=N\NC(=O)c1cc(C2CC2)[nH]n1)c1ccc2ccccc2c1,-15.4%
17,Cc1ccc(S(=O)(=O)N/N=C/c2ccc(OS(=O)(=O)c3cccc([N+](=O)[O-])c3)cc2)cc1,-7.8%
18,O=C(Cc1ccccc1)Nc1ccc(-c2nc3ccccc3s2)c(O)c1,-3.3%
19,COc1ccc(C(=O)Nc2ncc(Br)cc2Br)cc1[N+](=O)[O-],-0.9%
20,COc1ccc(C(=O)Oc2ccc3oc(=O)cc(C)c3c2)cc1OC,10.9%
21,O=C(/C=C/c1ccc2c(c1)OCO2)Nc1ccc(Cl)c(Cl)c1,-17%
22,Cc1cccc(NCCC(=O)c2cccc([N+](=O)[O-])c2)c1C,-13%
23,N#Cc1c(N)nc2c(c1-c1cccc(O)c1)CCCCC2,-0.1%

row,SMILES,displacement
1,C/C=C/C=C(\NC(=O)c1ccccc1)C(=O)O,-1%
2,CCOc1ccccc1NC(=O)CN(c1ccc(OC)cc1)S(=O)(=O)c1ccc(C)cc1,1.8%
3,CC(C)c1ccc(C2OC3(C(=O)c4ccccc4C3=O)C3C(=O)N(c4ccc(Cl)c(Cl)c4)C(=O)C23)cc1 (configuration not stated),4.5%
4,O=C(Nc1cccc(Br)c1)c1cccs1,7.5%
5,c1ccc(-n2ncc3c2CCc2c-3[nH]c3ccccc23)cc1,3.2%
6,CSc1[nH]c(-c2ccccc2)cc1C(C)=O,4.5%
7,CCCCP(=O)(CCCC)CP(=O)(c1ccccc1)c1ccccc1,-1.3%
8,Cc1cc(/C=C2/NC(=O)NC2=O)c(C)n1-c1ccc(N2CCOCC2)cc1,-5.1%
9,O=C1CC(c2ccccc2)CN1C(=O)C12CC3CC(CC(C3)C1)C2 (configuration not stated),-8%
10,Oc1ccc(/C=N/N2CCN(Cc3ccc(Cl)cc3)CC2)cc1O,17.4%
11,CCN(C(=O)c1cccc([N+](=O)[O-])c1C)C1CCCCC1,-10%
12,c1ccc(C2N(c3ccccc3)CCN2c2ccccc2)cc1,-1.8%
13,O=C(Nc1cccc(NC(=O)c2ccc(Cl)cc2Cl)c1)c1cccc([N+](=O)[O-])c1,1.3%
14,COc1cc(C(=O)Nc2ccc3oc(-c4ccc5ccccc5c4)nc3c2)cc(OC)c1OC,17.7%
15,COc1cc(C)nc(Nc2nc(C)c3ccc(C)cc3n2)n1,13.2%
16,Cc1cccc(C(=O)Nc2cccc3c2CCCC3)c1,-1.2%
17,O=C(CC1S/C(=N\N=C\c2cccs2)NC1=O)Nc1ccc(C(=O)O)cc1 (configuration not stated),121%
18,CCc1cc2c(C)c(CC)c(=O)oc2cc1O,15%
19,COC(=O)c1ccc(NC(=O)c2ccc(Cl)cc2)cc1,6%
20,O=C(Nc1sc2c(c1C(=O)N1CCCCC1)CCCCC2)c1ccc([N+](=O)[O-])cc1,-2.1%
21,COc1ccccc1-c1c(C(F)(F)F)oc2cc(OCc3cccc(Cl)c3)ccc2c1=O,15%
22,O=C(Nc1cccc(Cl)c1)Nc1nnc(C(c2ccccc2)c2ccccc2)s1,-0.2%
23,CCc1cc(=O)oc2cc(OCC(=O)c3ccc(-c4ccccc4)cc3)ccc12,32.7%

row,SMILES,displacement
1,C/C(=N\O)C1(C)N(O)C(C)(C)C(c2ccc(Br)cc2)=[N+]1[O-] (configuration not stated),12.1%
2,O=[N+]([O-])c1ccc(CSc2nnc(-c3ccco3)o2)cc1,10.6%
3,CCOC(=O)NC(Nc1ccc(F)cc1)C(Cl)(Cl)Cl (configuration not stated),15.6%
4,O=C1c2ccccc2NC(c2cccc(O)c2)N1c1ccccc1 (configuration not stated),-13.5%
5,O=C(COc1ccc([N+](=O)[O-])cc1)Nc1ccc(-c2nc3ccccc3o2)cc1,49.6%
6,COc1ccc(N(CC(=O)NC(C)c2ccccc2)S(=O)(=O)c2ccc(C)cc2)c(OC)c1 (configuration not stated),2.3%
7,COc1ccccc1CNC(=O)C(=O)Nc1ccccc1C,2.3%
8,Cc1cc2nc(SCc3ccccc3)nc(C)c2cc1C,9.6%
9,COc1ccc2nc(NC(=O)c3ccccc3Br)sc2c1,-6.3%
10,CC(NC(=O)COc1ccc(/C=N/NS(=O)(=O)c2ccccc2)cc1)c1ccccc1 (configuration not stated),4%
11,O=C1N=C(N2CCCCCC2)S/C1=C\c1cccc2ccccc12,-9.7%
12,Fc1ccccc1-c1nnc2ccc3ccccc3n12,-9.5%
13,Cc1ccc(C2/C(=C(\O)c3ccccc3)C(=O)C(=O)N2c2nncs2)cc1 (configuration not stated),11.3%
14,COc1ccc(/C=C/C(=O)Nc2cc(C(F)(F)F)ccc2Cl)cc1,6.5%
15,Cc1ccc(NS(=O)(=O)c2ccc([N+](=O)[O-])cc2)nc1,15.4%
16,O=C(c1c(Cl)cccc1Cl)N1CCN(c2ccc(Cl)cc2)CC1,-4%
17,Clc1ccc(C2=NN(c3ccccc3)C(c3ccco3)C2)cc1 (configuration not stated),-6.7%
18,CN(C)c1ccc(/C=N/N2C(=O)C3C(C2=O)C2C=CC3C23CC3)cc1Br (configuration not stated),5.4%
19,Cc1ccc2ccc(S(=O)(=O)N3CCN(C)CC3)cc2c1,14.2%
20,O=C(c1ccc(Br)o1)N1CCCCC1,-1.2%
21,O=C(CSCc1ccccc1)Nc1nnc(/C=C/c2ccccc2)s1,39.9%
22,Cc1cc(OCC(=O)NCc2ccc(F)cc2)cc(C)c1Cl,0.4%
23,O=C1CCCC2=C1C(c1ccc(Br)cc1)Nc1ccc(C(=O)c3ccccc3)cc1N2 (configuration not stated),-12.7%

row,SMILES,displacement
1,CC(C)(C)c1ccc(C(=O)NCCSc2nc3ccccc3s2)cc1,3.4%
2,COc1ccc(OCC(=O)Nc2cc(C)ccc2OC)cc1,0%
3,O=C(c1ccccc1)c1ccc(O)c(O)c1,-4.8%
4,Cc1cc(C)cc(NC(=O)C2CC(=O)N=C(N)S2)c1 (configuration not stated),0.7%
5,CCOC(=O)c1ccc(NC(=O)/C=C/c2ccccc2)cc1,-9.2%
6,COc1cccc(C(=O)/C=C/c2ccc(F)cc2)c1,-3.3%
7,C=CCN1C(=O)/C(=C\c2ccc(-c3ccccc3[N+](=O)[O-])o2)C(=O)NC1=S,44.4%
8,CCn1c(=O)c2c(n3cnnc13)-c1ccccc1CC21CCCCC1,-4.2%
9,CSc1ccc(S(=O)(=O)NCCSc2ccccn2)cc1,12.3%
10,Cc1nn2c(C(F)(F)F)cc(-c3ccc(Cl)cc3)nc2c1C(N)=O,1.1%
11,CCC(C(=O)Nc1nc(-c2ccccc2)c(C)s1)c1ccccc1 (configuration not stated),-9.3%
12,O=C1/C(=C/c2ccc(-c3ccc(Cl)cc3[N+](=O)[O-])o2)Sc2ccccc21,-8.9%
13,O=C(N=Nc1c(O)n(Cc2ccccc2)c2ccccc12)c1ccccc1O,-4.9%
14,CCc1sc(-c2c(C#N)c(N)nc3c2CCCCC3)cc1Br,-4.2%
15,CC(C)c1ccc(NC(=O)C2CCCCC2C(=O)O)cc1 (configuration not stated),-3.6%
16,CCN(CC)c1ccc(NC(=O)c2ccc(F)cc2)cc1,-4.3%
17,O=C(Nc1cccnc1)c1cc(-c2cccs2)nc2ccccc12,12.2%
18,CCOC(=O)c1c(NC(=O)c2cncc(Br)c2)sc2c1CCC2,-3.2%
19,CC(C)C(NC(=O)c1ccccc1Br)C(=O)O (configuration not stated),2.6%
20,c1ccc2oc(-c3ccc(NCc4ccc5c(c4)OCO5)cc3)nc2c1,-3.2%

# — PubChem BioAssay AID1240 (Sanford-Burnham Center for Chemical Genomics, 2008)
